From PubChem BioAssay AID504832 (National Center for Advancing Translational Sciences (NCATS), 2011)
Out of some 310,000 compounds screened, about 18,000 (5.8%) were called active. Inconclusive results, whose numbers are uncertain, are shown with a selection of clear calls. Calls come from the whole dose curve; as a rule, active = well fitted inhibition curve with a large enough effect; inconclusive = small, poorly fitted or top-dose-only effect, or another doubt; inactive = no such curve, though single readings can be large or run the other way. Potencies of inconclusive entries are left out as doubtful fits.

assay: Primary qHTS for delayed death inhibitors of the malarial parasite plastid, 48 hour incubation; settings: P. falciparum luciferase growth in erythrocytes; series mostly up to 28.7 µM; activity change, negative = inhibition: at the top concentration
Method in brief: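 Compounds are pin-transferred into medium, infected erythrocytes (2% hematocrit, 0.1% parasitemia final) are added, and plates sit one parasite generation at 37 C in 5% CO2. Detection reagent is then added and luminescence measured.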
% is set by controls: 0 for no effect and ±100 for the full control effect; potency is the fitted concentration of half-maximal effect; tags give direction and shape of the fitted curve.

SMILES | Potency | activity change, negative = inhibition
COc1cc(C2C(C#N)=C(C)NC3=C2C(=O)c2ccccc23)cc(OC)c1OC (stereo not drawn) | inconclusive [inhibitor, single point] | –
O=C(CCNC(=O)C1CCN(S(=O)(=O)c2ccccc2)CC1)Nc1cccc(C(F)(F)F)c1 | – | inactive: -0.386%
Cc1cccc(C(=O)c2cnc3ccccc3c2-c2ccccc2)c1 | inconclusive [inhibitor, partial curve, poor fit] | –
COc1cc(C(=O)NC(=S)Nc2ccccc2N2CCCC2)cc(OC)c1OC | – | inactive: 0%
CCCN(CC(=O)Nc1ccccc1C)C(=O)c1ccc(=O)n(Cc2ccccc2)n1 | inconclusive [inhibitor, partial curve, poor fit] | –
CCCNC(=O)C1(CC2CC(c3ccccc3)=NO2)CCN(C(=O)C2CCCC2)CC1 (stereo not drawn) | active: 13.1 µM | –
CC(=O)NCCc1nc2ccccc2n1CCc1ccccc1 | inconclusive [inhibitor, single point] | –
Cc1nc([N+](=O)[O-])c(Sc2nc3ccc([N+](=O)[O-])cc3[nH]2)n1Cc1ccccc1 | inconclusive [inhibitor, single point] | –
Cc1ccc(N(C)S(=O)(=O)c2ccc(-c3cnc(C4CC4)o3)cc2)cc1 | inconclusive [inhibitor, partial curve, poor fit] | –
C#CCOCCOCCOCCNc1nc(N2CCN(C(=O)CCCCCCCCCCNC(=O)[C@H](CCCCN)n3cc(CCO)nn3)CC2)nc(N2CCN(C(=O)CCCCCCCCCCNC(=O)[C@H](CCCCN)n3cc(CCCC(=O)O)nn3)CC2)n1 | inconclusive [inhibitor, single point] | –
O=C(c1ccc(Cl)s1)N1CCN(c2ncccn2)CC1 | – | inactive: 31%
CC1CCCCN1C(=O)CN1CCN(S(=O)(=O)c2ccc(Br)cc2Cl)CC1 (stereo not drawn) | inconclusive [inhibitor, single point] | –
COc1ccc(N(C)S(=O)(=O)c2cccc(C(=O)Nc3ccc(OC)nc3)c2)cc1 | – | inactive: -39.3%
C[C@@]12C(=O)Nc3ccc(Br)cc3C(=O)N1[C@H]1c3cc(Br)ccc3OC[C@@H]1[C@@H]2c1ccccc1 | active: 3.29 µM | –
Cc1cc(N/N=C/c2ccc([N+](=O)[O-])o2)nc2ccccc12 | active: 4.65 µM | –
O=C(CN1CCN(c2ccccc2O)CC1)Nc1cc([N+](=O)[O-])ccc1Cl | active: 9.28 µM | –
O=C(Nc1ccccc1C(=O)Nc1ccncc1)c1ccccc1 | inconclusive [inhibitor, partial curve] | –
CCOC(=O)N1CCN(Cc2nnc(-c3ccccc3C)o2)CC1 | – | inactive: 18.7%
O=C(NCc1ccccc1Cl)c1ccccc1Oc1ccccc1 | – | inactive: -13.8%
Cc1cc(C)nc(/N=C(\N)Nc2ccc(OCc3ccccc3)cc2)n1 | inconclusive [inhibitor, single point] | –
COCCN(C(=S)Nc1ccccc1C)C(C)c1cccs1 (stereo not drawn) | – | inactive: 19.9%
O=C(c1ccccc1NS(=O)(=O)c1cccc(C(F)(F)F)c1)N1CCc2ccccc21 | – | inactive: 4.56%
COCCCNC(=O)c1ccc(CSCc2ccc(C)cc2)o1 | inconclusive [inhibitor, single point] | –

SMILES | Potency | activity change, negative = inhibition
O=C(COc1ccc(Cl)cc1)N(Cc1ccccc1)c1ccccn1 | – | inactive: 2.81%
c1c(CC2CCCC2)nnn1C[C@H]1CC[C@@H]([C@@H]2CC[C@H](Cn3cc(CC4CCCC4)nn3)O2)O1 | – | inactive: -14.6%
COc1ccc2[nH]c3c(=O)n(/N=C/c4ccc(OC)c(CN5CCCC5)c4)c(C)nc3c2c1 | inconclusive [inhibitor, partial curve, poor fit] | –
Nc1ccc(N(CCO)CCO)cc1 | inconclusive [inhibitor, single point] | –
CCOC(=O)C1CCCN(c2c(NCCc3ccccc3)c(=O)c2=O)C1 (stereo not drawn) | inconclusive [inhibitor, single point] | –
CC(C)(C)OC(=O)N1CCN(c2ccc(CNC(=O)c3ccc(Cl)cc3)cc2)CC1 | inconclusive [inhibitor, partial curve, poor fit] | –
CCOc1cc(C(=S)N2CCCCC2)ccc1OS(=O)(=O)c1ccc(Br)cc1 | inconclusive [inhibitor, single point] | –
CC1=CCC[C@@H]2[C@@](C)(CC/C(C)=C/C(=O)O)[C@H](C)CC[C@@]12C | – | inactive: 4.72%
CCc1ccccc1NC(=O)CN(C)C(=O)c1cc(C2CC2)nn1-c1ccccc1 | inconclusive [inhibitor, single point] | –
CCCN(CCC)C(=O)CCSCCC(=O)N(CCC)CCC | – | inactive: 14.1%
C/C(N)=C(/C#N)C(=O)COC(=O)CC12CC3CC(CC(C3)C1)C2 | inconclusive [inhibitor, partial curve] | –
COC(=O)[C@@]12CCCN1[C@H](c1ccc(-c3ccccc3)cc1)[C@H]1C(=O)N(C)C(=O)[C@H]12 | active: 10.4 µM | –
CCn1cc(C(=O)N2CCN(Cc3ccc4c(c3)OCO4)CC2)c2cc(OC)c(OC)cc2c1=O | inconclusive [inhibitor, partial curve] | –
COc1cccc(C(=O)COc2cccc(NC(=O)c3cccc([N+](=O)[O-])c3)c2)c1 | inconclusive [inhibitor, partial curve, poor fit] | –
COc1ccccc1NC(=O)NCc1nc(-c2ccc(C(F)(F)F)cc2)no1 | – | inactive: -6.9%
Cc1ccccc1OCCC(=O)OCC(=O)Nc1ccc(C(N)=O)cc1 | – | inactive: 44.3%
Cc1cc(Br)ccc1OCCOCCN1CCCC1 | – | inactive: -15%
O=C(Nc1nnc(C2CC2)s1)c1n[nH]c(=O)c2ccccc12 | inconclusive [inhibitor, single point] | –
O=C(CN(c1ccccc1)S(=O)(=O)c1ccccc1[N+](=O)[O-])N1CCCC1 | inconclusive [inhibitor, partial curve, poor fit] | –
CSc1nc(N2CCOCC2)c2ccccc2n1 | inconclusive [inhibitor, partial curve, poor fit] | –
COc1ccc(C)cc1-n1nnnc1SCC(=O)Nc1cc(C)on1 | inconclusive [inhibitor, single point] | –
CC(=O)c1sc(NC(=O)c2ccc(Cn3cc(Br)cn3)o2)nc1C | – | inactive: 9.18%
CCOc1cccc2cc(C(=O)NCc3ccc(Cl)cc3)c(=N)oc12 | inconclusive [inhibitor, single point] | –

SMILES | Potency | activity change, negative = inhibition
C=CCNC(=O)c1onc(CSc2cc(C)cc(C)c2)c1C(=O)NCC=C | inconclusive [inhibitor, single point] | –
Cc1ccc(N2C(=O)c3cccc([N+](=O)[O-])c3C2=O)cc1C | – | inactive: 7.56%
COc1ccc(CCn2c(C)cc(C(=O)CSc3nnnn3-c3ccccc3)c2C)cc1OC | inconclusive [inhibitor, single point] | –
Cc1cc([N+](=O)[O-])c2c(c1C)C1C=CCC1C(c1ccccn1)N2 (stereo not drawn) | inconclusive [inhibitor, partial curve] | –
CCc1ccc(S(=O)(=O)ON2C(=O)c3ccccc3C2=O)cc1 | – | inactive: 10.9%
Cc1ccc(CN2CCN(CC(=O)N/N=C/c3c[nH]c4ccccc34)CC2)cc1 | – | inactive: 3.48%
N#CCC(=O)N/N=C/c1cc([N+](=O)[O-])ccc1N1CCOCC1 | inconclusive [inhibitor, single point] | –
CC1CCCN(C2=NC(=O)/C(=C/c3cn(-c4ccccc4)nc3-c3cccc(S(=O)(=O)N(C)C)c3)S2)C1 (stereo not drawn) | inconclusive [inhibitor, full curve, poor fit] | –
Cc1c(NC(=O)CCCCCN2C(=O)c3ccccc3C2=O)c(=O)n(-c2ccccc2)n1C | – | inactive: 2.73%
Cc1ccc(S(=O)(=O)N2CCN(Cc3cc(=O)n4ccccc4n3)CC2)c(C)c1 | inconclusive [inhibitor, single point] | –
CC(=O)c1cccc(CN(C)CC2CCCN(CCc3ccccc3C)C2)c1 (stereo not drawn) | inconclusive [inhibitor, partial curve] | –
C[C@]12CC[C@H]3[C@@H](CCC4=CC(=O)CC[C@@]43C)[C@@H]1CC[C@@H]2O | inconclusive [inhibitor, partial curve, poor fit] | –
CN1CC=C2C(C#N)=C(N)C(C#N)(C#N)[C@H](c3cccs3)[C@H]2C1 | – | inactive: -10.5%
CC(CN1CCCCC1)NC(=O)c1cc(-c2ccccn2)nc2ccc(Cl)cc12 (stereo not drawn) | inconclusive [inhibitor, partial curve] | –
CCOC(=O)c1ccc(N(CC(=O)NC2CCCCC2)C(=O)CNC(=O)c2ccco2)cc1 | inconclusive [inhibitor, partial curve] | –
COc1ccccc1C(=O)Nc1ccc2nc3n(c(=O)c2c1)CCCC3 | inconclusive [inhibitor, partial curve] | –
Cc1ccc(S(=O)(=O)NC2CC(C)(C)N(O)C(C)(C)C2)cc1 | – | inactive: -28%
O=C1C2C3C=CC(O3)C2C(=O)N1CC(O)c1ccccc1 (stereo not drawn) | – | inactive: 6.87%
CCc1nnc(NC(=O)c2ccc3ncsc3c2)s1 | – | inactive: 11.7%
CCCN(CCC)c1nc(NC2CCN(C(=O)OCC)CC2)nc(OC)n1 | inconclusive [inhibitor, single point] | –
Cc1cc2cc(CN(Cc3ccc4c(c3)OCO4)C(=O)c3ccco3)c(=O)[nH]c2cc1C | inconclusive [inhibitor, partial curve, poor fit] | –
O=C(N/N=C/c1cccc([N+](=O)[O-])c1)c1cc(-c2ccc3c4c(cccc24)CC3)n[nH]1 | – | inactive: -0.392%
